IC50 is the fitted dose that halves viability relative to control wells, and lower means more sensitive; a fit beyond the top or the lowest dose is shown as a bound at that dose. AUC sums up the same curve from the lowest dose to the 256-fold higher top dose: 1 means no effect, lower means more sensitive. For part of these data: Where the top dose is marked as inferred, it is not printed in the source and was worked back from the curve model. For part of these data: Drugs with an entry number were screened twice under separate entries, and the two screens often disagree.
Tests used:
Test in all cases: Viability of human cancer cell lines after 72 h of drug (GDSC screen)
MPS-1-IN-1 = compound: COc1cc(N2CCC(O)CC2)ccc1Nc1cc(Nc2ccccc2S(=O)(=O)C(C)C)c2cc[nH]c2n1 [MPS-1-IN-1]; settings: top dose 20 µM; top dose inferred
Protocol: (§1)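 Human cancer cell lines in 384-well plates, medium with 10% serum, drug for 72 h over a 256-fold dose range (nine 2-fold or five 4-fold steps up to the top dose). Adherent lines were fixed and stained with the nucleic acid dye Syto60, suspension lines read with resazurin; signal relative to control wells, capped at 0 and 100%. One two-parameter sigmoid per drug and line, fitted in a mixed model over all curves with the slope shared within a line.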

KU-55933 = compound: O=c1cc(-c2cccc3c2Sc2ccccc2S3)oc(N2CCOCC2)c1 [KU-55933]; settings: top dose 10 µM
Protocol: as §1

CP466722 = compound: COc1cc2ncnc(-n3nc(-c4ccccn4)nc3N)c2cc1OC [CP466722]; settings: top dose 16 µM; top dose inferred
Protocol: as §1

Cytarabine = compound: Nc1ccn([C@@H]2O[C@H](CO)[C@@H](O)[C@@H]2O)c(=O)n1 [Cytarabine]; settings: top dose 2 µM
Protocol: as §1

GSK269962A = compound: CCn1c(-c2nonc2N)nc2cnc(Oc3cccc(NC(=O)c4ccc(OCCN5CCOCC5)cc4)c3)cc21 [GSK269962A]; settings: top dose inferred
Protocol: as §1

QL-X-138 = compound: C=CC(=O)Nc1cc(-n2c(=O)ccc3cnc4ccc(-c5cn[nH]c5)cc4c32)ccc1C [QL-X-138]; settings: top dose 10.24 µM; top dose inferred
Protocol: as §1

Zibotentan = compound: COc1nc(C)cnc1NS(=O)(=O)c1cccnc1-c1ccc(-c2nnco2)cc1 [Zibotentan]; settings: top dose 20 µM; top dose inferred
Protocol: as §1

ABT-888 = compound: C[C@]1(c2nc3c(C(N)=O)cccc3[nH]2)CCCN1 [ABT-888]; settings: top dose 5 µM; top dose inferred
Protocol: as §1

CHIR-99021 = compound: Cc1cnc(-c2cnc(NCCNc3ccc(C#N)cn3)nc2-c2ccc(Cl)cc2Cl)[nH]1 [CHIR-99021]
Protocol: as §1

(5Z)-7-Oxozeaenol = compound: COc1cc(O)c2c(c1)/C=C/C[C@H](O)[C@H](O)C(=O)/C=C\C[C@H](C)OC2=O [(5Z)-7-Oxozeaenol]; settings: top dose 10 µM; top dose inferred
Protocol: as §1

CMK = compound: Cc1ccc(-c2c(C(=O)CCl)n(CCCO)c3ncnc(N)c23)cc1 [CMK]; settings: top dose 4 µM; top dose inferred
Protocol: as §1

ABT-869 = compound: Cc1ccc(F)c(NC(=O)Nc2ccc(-c3cccc4[nH]nc(N)c34)cc2)c1 [ABT-869]; settings: top dose 1.024 µM; top dose inferred
Protocol: as §1

Thapsigargin = compound: C/C=C(/C)C(=O)O[C@H]1C(C)=C2[C@H]([C@@H]1OC(=O)CCCCCCC)[C@@](C)(OC(C)=O)C[C@H](OC(=O)CCC)[C@@]1(O)[C@H]2OC(=O)[C@@]1(C)O [Thapsigargin]; settings: top dose 0.512 µM; top dose inferred
Protocol: as §1

[1] = top dose 2.5 µM, screen: GDSC drug entry 127
[2] = top dose 5 µM, screen: GDSC drug entry 1192
[3] = top dose 2.56 µM, screen: GDSC drug entry 154
[4] = top dose 10 µM, screen: GDSC drug entry 1241, top dose inferred

| Cell Line | AUC (MPS-1-IN-1) | IC50 (MPS-1-IN-1) [nM] | AUC (KU-55933) | IC50 (KU-55933) [nM] | AUC (CP466722) | IC50 (CP466722) [nM] | AUC (Cytarabine) | IC50 (Cytarabine) [nM] | AUC (GSK269962A; [1]) | IC50 (GSK269962A; [1]) [nM] | AUC (GSK269962A; [2]) | IC50 (GSK269962A; [2]) [nM] | AUC (QL-X-138) | IC50 (QL-X-138) [nM] | AUC (Zibotentan) | IC50 (Zibotentan) [nM] | AUC (ABT-888) | IC50 (ABT-888) [nM] | AUC (CHIR-99021; [3]) | IC50 (CHIR-99021; [3]) [nM] | AUC (CHIR-99021; [4]) | IC50 (CHIR-99021; [4]) [nM] | AUC ((5Z)-7-Oxozeaenol) | IC50 ((5Z)-7-Oxozeaenol) [nM] | AUC (CMK) | IC50 (CMK) [nM] | AUC (ABT-869) | IC50 (ABT-869) [nM] | AUC (Thapsigargin) | IC50 (Thapsigargin) [nM] |
| --- | --- | --- | --- | --- | --- | --- | --- | --- | --- | --- | --- | --- | --- | --- | --- | --- | --- | --- | --- | --- | --- | --- | --- | --- | --- | --- | --- | --- | --- | --- |
| VA-ES-BJ (soft tissue, adherent) | 0.962 | > 20000 | 0.963 | > 10000 | 0.927 | > 16000 | 0.428 | 78.5 | 0.98 | > 2500 | 0.909 | > 5000 | 0.737 | 3190 | 0.985 | > 20000 | 0.968 | > 5000 | 0.983 | > 2560 | 0.502 | 634 | 0.665 | 1850 | 0.794 | 1950 | 0.984 | > 1020 | 0.352 | 12.1 |
| VCaP (prostate, adherent) | 0.719 | 5380 | 0.958 | > 10000 | 0.767 | 6150 | 0.897 | > 2000 | 0.986 | > 2500 | 0.983 | > 5000 | 0.545 | 855 | 0.987 | > 20000 | 0.987 | > 5000 | 0.987 | > 2560 | 0.928 | > 10000 | 0.909 | > 10000 | 0.961 | > 4000 | 0.972 | > 1020 | 0.425 | 19.8 |
| WSU-DLCL2 (B-cell lymphoma, suspension) | 0.993 | > 20000 | 0.908 | 9770 | 0.834 | 8030 | 0.909 | 1980 | 0.989 | > 2500 | 0.991 | > 5000 | 0.786 | 3650 | 0.993 | > 20000 | 0.99 | > 5000 | 0.992 | > 2560 | 0.68 | 1800 | 0.978 | > 10000 | 0.962 | > 4000 | 0.993 | > 1020 | 0.993 | > 512 |
| YT (lymphoid neoplasm, suspension) | 0.858 | 12600 | 0.863 | 6600 | 0.527 | 1170 | 0.979 | > 2000 | 0.982 | > 2500 | 0.972 | > 5000 | 0.488 | 598 | 0.991 | > 20000 | 0.984 | > 5000 | 0.992 | > 2560 | 0.982 | > 10000 | 0.663 | 1640 | 0.992 | > 4000 | 0.992 | > 1020 | 0.355 | 13.6 |
